Experimental data as given in publication PMC4336329 (PLoS ONE, 2015).
The campaign covered roughly 310,000 compounds. About 2,200 (0.71%) showed an effect of 50% or more. The effect is printed as a negative number. Some of the results follow.

The molecules below were run against human ether-à-go-go-related gene (hERG) potassium channel (human, UniProt Q12809) (assay: primary screen, population patch clamp on CHO cells stably expressing hERG).
human ether-à-go-go-related gene (hERG) potassium channel, sequence (Q12809 whole entry, looked up): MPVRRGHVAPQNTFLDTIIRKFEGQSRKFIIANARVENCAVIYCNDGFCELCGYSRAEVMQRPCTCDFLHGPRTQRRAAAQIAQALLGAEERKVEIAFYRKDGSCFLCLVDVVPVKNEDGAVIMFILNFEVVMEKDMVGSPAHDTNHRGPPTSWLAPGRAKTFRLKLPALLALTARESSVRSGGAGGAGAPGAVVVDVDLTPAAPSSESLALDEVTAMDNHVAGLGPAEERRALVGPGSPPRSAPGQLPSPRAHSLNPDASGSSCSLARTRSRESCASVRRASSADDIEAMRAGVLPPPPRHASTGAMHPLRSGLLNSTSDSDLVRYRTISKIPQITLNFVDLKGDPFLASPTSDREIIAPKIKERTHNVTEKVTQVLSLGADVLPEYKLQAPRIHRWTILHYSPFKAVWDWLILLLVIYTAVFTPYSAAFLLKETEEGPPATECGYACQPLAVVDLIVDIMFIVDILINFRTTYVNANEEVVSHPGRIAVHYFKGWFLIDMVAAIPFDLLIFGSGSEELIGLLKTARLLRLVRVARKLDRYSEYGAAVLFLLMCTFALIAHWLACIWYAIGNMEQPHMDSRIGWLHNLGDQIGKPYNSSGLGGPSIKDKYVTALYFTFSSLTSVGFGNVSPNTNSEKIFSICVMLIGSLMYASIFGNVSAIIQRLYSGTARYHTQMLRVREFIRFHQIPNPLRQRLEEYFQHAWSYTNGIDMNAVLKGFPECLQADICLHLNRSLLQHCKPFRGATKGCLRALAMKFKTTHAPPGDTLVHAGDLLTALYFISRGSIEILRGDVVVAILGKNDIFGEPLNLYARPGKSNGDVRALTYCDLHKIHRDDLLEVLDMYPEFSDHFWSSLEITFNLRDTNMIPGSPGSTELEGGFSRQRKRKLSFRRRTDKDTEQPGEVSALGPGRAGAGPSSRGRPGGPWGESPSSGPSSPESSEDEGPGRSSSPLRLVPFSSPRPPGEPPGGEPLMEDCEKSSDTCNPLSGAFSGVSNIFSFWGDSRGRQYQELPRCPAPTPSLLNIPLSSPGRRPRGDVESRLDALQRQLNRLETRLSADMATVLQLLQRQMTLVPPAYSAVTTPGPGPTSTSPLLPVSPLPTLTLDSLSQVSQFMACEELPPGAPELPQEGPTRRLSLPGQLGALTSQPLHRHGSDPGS

Row | SMILES | hERG current change (%, negative = inhibition) at 1uM [%]
1 | CCSc1nnc2ccc(-c3ccc(OC)c(OC)c3)nn12 | -6.21
2 | CCN(CC(=O)Nc1ccc(NC(C)=O)cc1)C(=O)C1CCCC1 | -7.48
3 | O=C(Cn1cncn1)NCCC(c1ccccc1)c1ccccc1 | 12.5
4 | COc1ccc(/C=N/NC(=O)c2ccoc2C)cc1OC | 3.24
5 | Cc1ccc2cc(CN(C(=O)c3cccnc3)C(C)C)c(=O)[nH]c2c1 | 1.12
6 | O=C(NN1CCOCC1)c1ccccc1Br | 17.4
7 | COCc1nnc(NC(C)=O)s1 | 12.1
8 | CCc1c(C)nc2cc(-c3ccc(OC)cc3)[nH]n2c1=O | -7.83
9 | O=C1OCC2=C1C(c1ccc(F)cc1)Sc1ccccc1N2 (stereo not drawn) | 14.3
10 | CCC(C)(C)NC(=O)C(c1ccccc1Cl)N(C(=O)CCC(=O)Nc1cc(C)on1)C1CC1 (stereo not drawn) | 3.62
11 | COc1ccc(/C(=N/O)C(C)(C)NO)cc1.Cl | 7.29
12 | COc1ccccc1C(=O)NC(=O)COC(=O)C1CC2CCCC(C1)C2=O (stereo not drawn) | 19.5
13 | O=C(N/N=C/c1c(O)n(CCc2ccccc2)c(=O)[nH]c1=O)c1ccncc1 | 8.41
14 | COc1ccc(OCC(O)CN2CCCC2)cc1 (stereo not drawn) | 12.2
15 | O=C(CC1SC(=Nc2ccccc2)N(CCCO)C1=O)Nc1ccc(Cl)cc1 (stereo not drawn) | 9.9
16 | CC(C)Cn1c(N)c(C(=O)COC(=O)c2cccnc2Cl)c(=O)n(C)c1=O | 5.47
17 | Cc1nc2c(C)cccc2cc1C(=O)N/N=C/c1cccc([N+](=O)[O-])c1 | -0.388
18 | CC(C)CNC(=O)NC(=O)COC(=O)Cn1cnc2ccccc2c1=O | 7.86
19 | Nc1nnc(-c2cccc([N+](=O)[O-])c2)o1 | 13.8
20 | CCOC(=O)c1cc(CC)sc1/N=C/c1c(O)ccc2ccccc12 | -2.46
21 | O=C(CCC(=O)Nc1ccc(Br)cc1)N/N=C/c1ccccc1O | 6.54
22 | CCOC(=O)CCNC(=O)N1CCCC(C(=O)c2cc(C)c(OC)c(C)c2)C1 (stereo not drawn) | 8.8
23 | CCOC(=O)c1nnn(-c2nonc2N)c1-c1ccc(Br)cc1 | 10.9

Row | SMILES | hERG current change (%, negative = inhibition) at 1uM [%]
24 | CCCCCC(O)CCC(=O)NNC1=CC(=O)CC(C)(C)C1 (stereo not drawn) | 11.1
25 | CCOCC(=O)Nc1c(C(=O)Nc2ccc3c(c2)OCO3)oc2ccccc12 | 19.4
26 | N#Cc1ccc(CN2CCN(C(=O)CC(NC(=O)c3ccccc3)c3ccccc3)CC2)cc1 (stereo not drawn) | -84.7
27 | Clc1ccccc1CNc1nc2ccccc2n2cnnc12 | 9.39
28 | CC1CCCC(C)N1C(=O)Cn1nnc(-c2ccc([N+](=O)[O-])cc2)n1 (stereo not drawn) | 4.79
29 | Cc1oc(S(=O)(=O)N2CCCCC2)cc1NC(=O)Nc1ccccc1 | 9.14
30 | Cc1ccc(NC(=O)CCNS(=O)(=O)c2ccc(OC(F)(F)F)cc2)c(O)c1 | 2.08
31 | O=C(NC1CCCC1)C1CC(c2ccc(F)cc2)=NO1 (stereo not drawn) | 0.226
32 | Cc1cc(C(=O)N/N=C/c2ccccn2)c2ccccc2n1 | 16
33 | Cn1c(O)c(C(=O)c2ccccc2)c(=O)n(C)c1=O | 8.22
34 | COc1cccc(NCCC(=O)c2cccc([N+](=O)[O-])c2)c1 | 10.6
35 | CNC(=O)/C(C#N)=C/c1ccc(-c2ccc(OC)cc2[N+](=O)[O-])o1 | 5.38
36 | COc1ccc(C(=O)/C=C/Nc2ccc(S(=O)(=O)Nc3onc(C)c3C)cc2)cc1 | 14.9
37 | CCOC(=O)C1CCN(C(=O)CCC(=O)NNc2nc3ccccc3c3nc(C)nn23)CC1 | 18.9
38 | Cc1ccc(N2CC(C(=O)Nc3cccnc3)CC2=O)cc1Cl (stereo not drawn) | 13.3
39 | COC(=O)c1[nH]nc2c1C(=O)N(C1CCCCC1)C2=O | 7.96
40 | COc1ccc(NC(=O)Nc2cc(C)ccc2OC)cc1 | -5.18
41 | Fc1ccc(-c2nnn(Cc3nc4ccccc4s3)n2)cc1 | 0.965
42 | Cc1c(Br)c(C(F)(F)F)nn1CC(=O)NCCN1CCOCC1 | 6.02
43 | CN=C(Nc1ccccc1)SC1CC(=O)N(c2cccc(OC)c2)C1=O (stereo not drawn) | 9.59
44 | COc1ccc(N2C(=O)CC(NNC(=O)c3ccco3)C2=O)cc1 (stereo not drawn) | -1.86
45 | CN(C)c1ccc(P(=O)(OCc2ccccc2)C(O)c2ccccc2)cc1 (stereo not drawn) | 11.5
46 | O=C(Nc1ccccc1NC(=O)c1ccccc1F)c1ccccc1F | 14.7

Row | SMILES | hERG current change (%, negative = inhibition) at 1uM [%]
47 | Clc1ccc(-c2c[nH]c3ccccc23)nn1 | 12.9
48 | Cc1ccc(NC(=O)CCN2CCC(C)CC2)cc1.Cl | 18.3
49 | COc1ccccc1N=Nc1[nH]c2ccc(C)cc2c1O | 3.92
50 | COC(=O)c1sc(N2C(=O)C(O)=C(C(=O)c3ccc(C)o3)C2c2ccco2)nc1C (stereo not drawn) | 4.2
51 | O=P(Nc1cccnc1)(Oc1ccccc1Cl)Oc1ccccc1Cl | 6.69
52 | CC(=O)N=C1SC2CS(=O)(=O)CC2N1c1ccc(-c2nc3ccc(C)cc3s2)cc1 (stereo not drawn) | 9.01
53 | COc1cc(NC(=O)c2ccco2)c(C(=O)OCC(=O)Nc2ncc(Cl)cc2Cl)cc1OC | 12.4
54 | CCn1nc(NC(=O)c2ccncc2)c2cc3cccc(C)c3nc21 | 20.3
55 | O=C(CSc1nnc(COc2ccccc2Cl)o1)NC(=O)NCc1ccco1 | 13.9
56 | CCc1nn(-c2ccccc2)c(N)c1C#N | 9.42
57 | COc1cccc(C(=O)Nc2ccc(NC(=O)Cc3ccccc3)cc2)c1 | -5.63
58 | CCOC(=O)CSc1nc2c(c(=O)[nH]1)C(C)(CC)Cc1ccccc1-2 (stereo not drawn) | 11
59 | CCCc1cc(=O)[nH]c(SCC(=O)Nc2cc3c(cc2C(C)=O)OCO3)n1 | 8.71
60 | COc1ccc(C(=O)N(c2ccccc2)C2C=CS(=O)(=O)C2)cc1 (stereo not drawn) | 3.52
61 | COc1ccccc1NC(=O)c1cc(C)oc1C | 1.5
62 | CCOC(=O)C1CCN(S(=O)(=O)c2cc3c(cc2C)NC(=O)CO3)CC1 | -13.1
63 | CCC(=O)NC(Nc1cc(C)cc(C)n1)(C(F)(F)F)C(F)(F)F | 17.6
64 | CCSc1nnc(NC(=O)c2cc(-c3ccccc3O)n[nH]2)s1 | 8.75
65 | COC(=O)c1ccc(C)c(NC(=O)c2nn(C)c(=O)c3ccccc23)c1 | 9.77
66 | CC1CCc2cc(F)ccc2N1C(=O)C1(C)CC1(Cl)Cl (stereo not drawn) | 11.3
67 | Cc1ccc(S(=O)(=O)N/N=C\c2ccc([N+](=O)[O-])o2)cc1 | -6.28
68 | Cc1cc(C)n2nc(SCC(=O)N/N=C/c3ccccc3F)nc2n1 | 9.71
69 | CSCC(C)N1CCC(n2nccc2NC(=O)CCCc2ccccc2)CC1 (stereo not drawn) | -9.4

Row | SMILES | hERG current change (%, negative = inhibition) at 1uM [%]
70 | COc1cc(NC(=O)c2ccccc2NS(=O)(=O)c2ccc(Cl)s2)cc(OC)c1 | 13.1
71 | CC(C)c1nnc(NC(=O)CCC(=O)N2CCN(c3ccccn3)CC2)s1 | -2.2
72 | O=C(O)CN=C1NC2(CCCC2)Cc2ccccc21 | 9.36
73 | O=C(O)c1cccnc1-c1ncccc1C(=O)O | 6.57
74 | CC(C)C[C@H](NC(=O)CCn1nnc2ccccc2c1=O)C(=O)O | 6.95
75 | Nc1nc(Nc2cccc3ccccc23)nc(C2CCCC2=O)n1 (stereo not drawn) | 14.3
76 | CCCSc1nc2ccccc2n1CC(=O)O | 20.7
77 | Cc1nn(CCC(=O)N2CCN(S(=O)(=O)c3ccccc3)CC2)c(C)c1C | 14.5
78 | CCCCS(=O)(=O)Nc1ccc(C)cn1 | 8.96
79 | Cc1ccc2ncccc2c1[N+](=O)[O-] | 0.585
80 | CCN1C(=O)[C@H]2[C@@H](c3ccc(C)cc3)N3C(=O)N(c4ccc(OC)cc4)C(=O)[C@@]3(Cc3ccccc3)[C@H]2C1=O | 12.7
81 | COc1cc(C(=O)Nc2cc(S(C)(=O)=O)ccc2Cl)ccc1OCC(=O)N1CCOCC1 | 5.03
82 | CCN(CC)CCNC(=O)c1ccc(NC(=O)c2c(C)nn(-c3ccc(F)cc3)c2Cl)cc1 | -40
83 | CC(C)N1C(=O)CN(C2CCCCCC2)C(=O)C1c1ccccc1F (stereo not drawn) | 11.8
84 | CCOC(=O)Nc1ccc2c(c1)N(C(=O)CNC)c1ccccc1CC2.Cl | 14.7
85 | Cc1ccc(OCC(=O)N2CCc3ccccc3C2)c([N+](=O)[O-])n1 | 2.48
86 | Cc1cc(C)c(S(=O)(=O)c2ccccc2C(=O)O)c(C)c1 | 10.6
87 | CC(=O)SC1CC(=O)N(c2c(C)cccc2C)C1=O (stereo not drawn) | 11.7
88 | COC(=O)c1cn(C(=O)c2ccc(Cl)cc2)c2ccccc12 | 12.5
89 | Cc1cc(C)n2nc(C(=O)Nc3ccc(S(=O)(=O)N4CCCCC4)cc3)nc2n1 | 13.3
90 | COc1ccc(-n2nc(C(=O)NCC(=O)N3CCCC3)c3ccccc3c2=O)c(OC)c1 | 14.8
